Laboratory results as given in paper PMC5679597.
Results are given in words; binding and its absence hold for the method and conditions named. Binding seen in cells or lysates may run through a third protein. Some entries that bind do so weakly or less than the wild type. Sequences can lack the tags named with a protein.

B1: KLHL11, transfected, HA or GST epitope-tagged (Fig 1B) (protein, UniProt Q9NVR0 16-708)
chain: ASLQVLEMESMETAAAGSAGLAAEVRGSGTVDFGPGPGISAMEASGGDPGPEAEDFECSSHCSELSWRQNEQRRQGLFCDITLCFGGAGGREFRAHRSVLAAATEYFTPLLSGQFSESRSGRVEMRKWSSEPGPEPDTVEAVIEYMYTGRIRVSTGSVHEVLELADRFLLIRLKEFCGEFLKKKLHLSNCVAIHSLAHMYTLSQLALKAADMIRRNFHKVIQDEEFYTLPFHLIRDWLSDLEITVDSEEVLFETVLKWVQRNAEERERYFEELFKLLRLSQMKPTYLTRHVKPERLVANNEVCVKLVADAVERHALRAENIQSGTCQHPTSHVSLLPRYGQNMDVIMVIGGVSEGGDYLSECVGYFVDEDRWVNLPHIHNHLDGHAVAVTESYVYVAGSMEPGFAKTVERYNPNLNTWEHVCSLMTRKHSFGLTEVKGKLYSIGGHGNFSPGFKDVTVYNPELDKWHNLESAPKILRDVKALAIEDRFVYIAARTPVDRDTEDGLKAVITCYDTETRQWQDVESLPLIDNYCFFQMSVVNSNFYQTASCCPKSYCLENEEAVRKIASQVSDEILESLPPEVLSIEGAAICYYKDDVFIIGGWKNSDDIDKQYRKEAYRYCAERKRWMLLPPMPQPRCRATACHVRIPYRYLHGTQRYPMPQNLMWQKDRIRQMQEIHRHALNMRRVPSSQIEC
B2: Kinesin-like protein KIF7, endogenous (protein, UniProt Q2M1P5 1-1343)
chain: MGLEAQRLPGAEEAPVRVALRVRPLLPKELLHGHQSCLQVEPGLGRVTLGRDRHFGFHVVLAEDAGQEAVYQACVQPLLEAFFEGFNATVFAYGQTGSGKTYTMGEASVASLLEDEQGIVPRAMAEAFKLIDENDLLDCLVHVSYLEVYKEEFRDLLEVGTASRDIQLREDERGNVVLCGVKEVDVEGLDEVLSLLEMGNAARHTGATHLNHLSSRSHTVFTVTLEQRGRAPSRLPRPAPGQLLVSKFHFVDLAGSERVLKTGSTGERLKESIQINSSLLALGNVISALGDPQRRGSHIPYRDSKITRILKDSLGGNAKTVMIACVSPSSSDFDETLNTLNYASRAQNIRNRATVNWRPEAERPPEETASGARGPPRHRSETRIIHRGRRAPGPATASAAAAMRLGAECARYRACTDAAYSLLRELQAEPGLPGAAARKVRDWLCAVEGERSALSSASGPDSGIESASVEDQAAQGAGGRKEDEGAQQLLTLQNQVARLEEENRDFLAALEDAMEQYKLQSDRLREQQEEMVELRLRLELVRPGWGGPRLLNGLPPGSFVPRPHTAPLGGAHAHVLGMVPPACLPGDEVGSEQRGEQVTNGREAGAELLTEVNRLGSGSSAASEEEEEEEEPPRRTLHLRRNRISNCSQRAGARPGSLPERKGPELCLEELDAAIPGSRAVGGSKARVQARQVPPATASEWRLAQAQQKIRELAINIRMKEELIGELVRTGKAAQALNRQHSQRIRELEQEAEQVRAELSEGQRQLRELEGKELQDAGERSRLQEFRRRVAAAQSQVQVLKEKKQATERLVSLSAQSEKRLQELERNVQLMRQQQGQLQRRLREETEQKRRLEAEMSKRQHRVKELELKHEQQQKILKIKTEEIAAFQRKRRSGSNGSVVSLEQQQKIEEQKKWLDQEMEKVLQQRRALEELGEELHKREAILAKKEALMQEKTGLESKRLRSSQALNEDIVRVSSRLEHLEKELSEKSGQLRQGSAQSQQQIRGEIDSLRQEKDSLLKQRLEIDGKLRQGSLLSPEEERTLFQLDEAIEALDAAIEYKNEAITCRQRVLRASASLLSQCEMNLMAKLSYLSSSETRALLCKYFDKVVTLREEQHQQQIAFSELEMQLEEQQRLVYWLEVALERQRLEMDRQLTLQQKEHEQNMQLLLQQSRDHLGEGLADSRRQYEARIQALEKELGRYMWINQELKQKLGGVNAVGHSRGGEKRSLCSEGRQAPGNEDELHLAPELLWLSPLTEGAPRTREETRDLVHAPLPLTWKRSSLCGEEQGSPEELRQREAAEPLVGRVLPVGEAGLPWNFGPLSKPRRELRRASPGMIDVRKNPL
B3: Protein numb homolog, endogenous (protein, UniProt P49757 1-651)
chain: MNKLRQSFRRKKDVYVPEASRPHQWQTDEEGVRTGKCSFPVKYLGHVEVDESRGMHICEDAVKRLKAERKFFKGFFGKTGKKAVKAVLWVSADGLRVVDEKTKDLIVDQTIEKVSFCAPDRNFDRAFSYICRDGTTRRWICHCFMAVKDTGERLSHAVGCAFAACLERKQKREKECGVTATFDASRTTFTREGSFRVTTATEQAEREEIMKQMQDAKKAETDKIVVGSSVAPGNTAPSPSSPTSPTSDATTSLEMNNPHAIPRRHAPIEQLARQGSFRGFPALSQKMSPFKRQLSLRINELPSTMQRKTDFPIKNAVPEVEGEAESISSLCSQITNAFSTPEDPFSSAPMTKPVTVVAPQSPTFQANGTDSAFHVLAKPAHTALAPVAMPVRETNPWAHAPDAANKEIAATCSGTEWGQSSGAASPGLFQAGHRRTPSEADRWLEEVSKSVRAQQPQASAAPLQPVLQPPPPTAISQPASPFQGNAFLTSQPVPVGVVPALQPAFVPAQSYPVANGMPYPAPNVPVVGITPSQMVANVFGTAGHPQAAHPHQSPSLVRQQTFPHYEASSATTSPFFKPPAQHLNGSAAFNGVDDGRLASADRHTEVPTGTCPVDPFEAQWAALENKSKQRTNPSPTNPFSSDLQKTFEIEL

How the values were obtained:
Test in all cases: pull-down; GFP pull-down: GFP-tagged LNX constructs transfected into HEK 293 cells (HEK 293T in Fig 3A) alone or with the partner, captured on GFP-Trap_M beads, western blot; NaCl in the wash up to 500 mM in some cases
[1] = target: T1, GFP-LNX1 PDZ1-4 fragment (aa268-728) (mouse) (UniProt O70263)
T1 sequence: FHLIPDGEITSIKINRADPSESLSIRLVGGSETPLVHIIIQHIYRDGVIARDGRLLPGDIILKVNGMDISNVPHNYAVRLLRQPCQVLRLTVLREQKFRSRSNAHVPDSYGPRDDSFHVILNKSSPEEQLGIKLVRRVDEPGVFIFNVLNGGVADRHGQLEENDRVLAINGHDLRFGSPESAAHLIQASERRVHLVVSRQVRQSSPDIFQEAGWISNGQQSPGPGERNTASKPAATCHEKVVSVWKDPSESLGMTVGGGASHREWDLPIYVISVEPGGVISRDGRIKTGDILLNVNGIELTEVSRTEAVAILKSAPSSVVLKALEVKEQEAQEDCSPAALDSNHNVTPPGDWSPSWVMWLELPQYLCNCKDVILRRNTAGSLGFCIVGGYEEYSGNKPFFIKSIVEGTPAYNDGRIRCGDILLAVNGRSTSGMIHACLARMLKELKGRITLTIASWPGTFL

[2] = target: T2, GFP-LNX1 PDZ2 (aa377-470) (mouse) (UniProt O70263)
T2 sequence: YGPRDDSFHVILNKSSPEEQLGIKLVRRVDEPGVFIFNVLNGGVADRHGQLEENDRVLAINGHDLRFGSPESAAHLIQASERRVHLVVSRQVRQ

[3] = target: T3, GFP-tagged LNX1p80 (Ligand of Numb protein X1, p80 isoform) (mouse) (UniProt O70263)
T3 sequence: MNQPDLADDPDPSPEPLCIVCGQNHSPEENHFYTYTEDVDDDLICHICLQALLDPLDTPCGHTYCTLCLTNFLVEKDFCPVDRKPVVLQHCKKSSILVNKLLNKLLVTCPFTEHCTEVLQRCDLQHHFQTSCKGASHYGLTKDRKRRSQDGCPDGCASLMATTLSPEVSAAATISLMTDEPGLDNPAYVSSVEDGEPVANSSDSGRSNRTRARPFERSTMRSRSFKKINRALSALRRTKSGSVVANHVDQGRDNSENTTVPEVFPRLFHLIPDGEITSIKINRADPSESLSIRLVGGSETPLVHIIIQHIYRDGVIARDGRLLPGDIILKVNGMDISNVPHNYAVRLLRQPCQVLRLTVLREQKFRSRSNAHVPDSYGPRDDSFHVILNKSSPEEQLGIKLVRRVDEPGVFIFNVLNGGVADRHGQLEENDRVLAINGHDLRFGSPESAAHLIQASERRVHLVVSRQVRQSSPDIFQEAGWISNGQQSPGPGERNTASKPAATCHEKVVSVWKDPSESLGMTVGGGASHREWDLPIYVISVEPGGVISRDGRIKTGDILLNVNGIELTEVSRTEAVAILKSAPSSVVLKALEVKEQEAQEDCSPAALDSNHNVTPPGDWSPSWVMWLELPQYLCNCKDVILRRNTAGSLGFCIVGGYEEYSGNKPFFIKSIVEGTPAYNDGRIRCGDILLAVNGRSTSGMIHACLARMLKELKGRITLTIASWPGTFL

GFP-tagged LNX2 (mouse) = target: T4, GFP-tagged LNX2 (mouse) (UniProt Q91XL2)
T4 sequence: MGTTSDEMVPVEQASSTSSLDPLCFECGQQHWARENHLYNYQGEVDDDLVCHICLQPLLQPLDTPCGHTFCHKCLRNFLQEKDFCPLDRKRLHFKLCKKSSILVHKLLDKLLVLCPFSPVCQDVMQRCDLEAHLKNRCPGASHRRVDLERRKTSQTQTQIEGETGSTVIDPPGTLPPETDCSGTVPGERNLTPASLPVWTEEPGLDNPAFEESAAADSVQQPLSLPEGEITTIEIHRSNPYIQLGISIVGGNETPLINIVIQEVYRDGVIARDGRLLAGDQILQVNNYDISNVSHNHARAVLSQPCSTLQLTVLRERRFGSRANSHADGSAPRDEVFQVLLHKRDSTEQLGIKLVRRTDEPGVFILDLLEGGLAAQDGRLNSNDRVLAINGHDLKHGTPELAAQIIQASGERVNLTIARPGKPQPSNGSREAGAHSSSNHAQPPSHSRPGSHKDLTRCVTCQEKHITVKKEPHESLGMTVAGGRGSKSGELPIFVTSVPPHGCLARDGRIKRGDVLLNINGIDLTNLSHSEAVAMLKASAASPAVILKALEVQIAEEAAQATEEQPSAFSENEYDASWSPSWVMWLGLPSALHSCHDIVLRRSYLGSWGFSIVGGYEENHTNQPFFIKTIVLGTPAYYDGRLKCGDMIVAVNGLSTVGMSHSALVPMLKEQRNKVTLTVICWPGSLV

[4] = target: T5, GFP-LNX1 PDZ4 (aa630-725) (mouse) (UniProt O70263)
T5 sequence: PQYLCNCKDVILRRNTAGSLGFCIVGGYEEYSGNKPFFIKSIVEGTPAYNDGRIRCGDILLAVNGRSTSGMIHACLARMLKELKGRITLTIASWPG

[5] = target: T6, GFP-LNX1 RING-NPAY motif fragment (aa1-277) (mouse) (UniProt O70263)
T6 sequence: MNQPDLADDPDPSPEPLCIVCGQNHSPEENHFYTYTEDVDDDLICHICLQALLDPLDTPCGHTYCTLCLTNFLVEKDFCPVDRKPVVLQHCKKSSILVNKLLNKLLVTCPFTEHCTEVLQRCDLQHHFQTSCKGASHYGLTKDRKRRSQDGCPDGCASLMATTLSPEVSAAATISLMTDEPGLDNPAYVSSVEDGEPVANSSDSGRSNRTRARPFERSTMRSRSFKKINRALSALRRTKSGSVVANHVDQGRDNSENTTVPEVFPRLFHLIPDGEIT

| Binder | binding [1] | binding [2] | binding [3] | binding (GFP-tagged LNX2 (mouse)) | binding [4] | binding [5] |
| --- | --- | --- | --- | --- | --- | --- |
| B1 | binds | binds | binds | binds | – | – |
| B2 | binds | binds | binds | no binding | binds | – |
| B3 | – | – | – | – | – | binds |
